# The entries are a selection whose mix differs from that of the whole data set. The list includes weakly bound sequences.
# What was measured:
# Test in all cases: protein-binding microarray (PBM)
# Settings in all cases: PBM: ~300 nM protein, 6 mM HEPES pH 7.8, 80 mM KCl, 0.5 mM EDTA, 0.5 mM EGTA, 6% glycerol, 35 ng/ul poly-dIdC, 1% milk, 1 h, room temperature; Ap Aiptasia and Nv Nematostella (sea anemones) / Co Capsaspora / Aq Amphimedon (sponge) / Dm Drosophila / Hu human; RHD is the Rel homology domain; high values mean tight binding; most listed sequences are background and not binding sites; double strand, one strand shown
# GST-Ap-NF-kB RHD = target: T1, GST-Ap-NF-kB RHD (UniProt A0A913YAJ5)
# T1 sequence: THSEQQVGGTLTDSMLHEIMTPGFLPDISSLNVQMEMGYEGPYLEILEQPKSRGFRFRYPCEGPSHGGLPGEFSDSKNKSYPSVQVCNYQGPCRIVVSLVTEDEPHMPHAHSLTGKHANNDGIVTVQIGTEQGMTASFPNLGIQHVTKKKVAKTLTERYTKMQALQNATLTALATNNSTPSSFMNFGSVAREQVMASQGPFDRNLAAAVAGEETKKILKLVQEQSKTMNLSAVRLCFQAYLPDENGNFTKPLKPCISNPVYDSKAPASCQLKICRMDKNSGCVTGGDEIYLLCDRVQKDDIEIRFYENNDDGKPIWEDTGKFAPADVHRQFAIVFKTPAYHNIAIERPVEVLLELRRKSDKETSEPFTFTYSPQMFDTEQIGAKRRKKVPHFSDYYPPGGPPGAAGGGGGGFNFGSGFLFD
# [1] = target: T2, GST-Nv-NF-kB (Cys allele) (UniProt E5G601)
# T2 sequence: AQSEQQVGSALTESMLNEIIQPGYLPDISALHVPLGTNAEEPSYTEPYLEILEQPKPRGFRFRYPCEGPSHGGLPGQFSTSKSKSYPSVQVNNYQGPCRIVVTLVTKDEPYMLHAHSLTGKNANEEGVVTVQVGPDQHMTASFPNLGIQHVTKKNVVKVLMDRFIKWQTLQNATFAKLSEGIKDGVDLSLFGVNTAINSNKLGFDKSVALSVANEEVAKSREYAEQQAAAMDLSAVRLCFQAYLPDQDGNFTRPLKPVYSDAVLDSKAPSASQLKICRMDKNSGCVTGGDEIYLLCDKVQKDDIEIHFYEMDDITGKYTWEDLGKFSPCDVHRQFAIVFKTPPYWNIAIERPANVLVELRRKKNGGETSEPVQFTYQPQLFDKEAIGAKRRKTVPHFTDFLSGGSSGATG
# GST-Co-NF-kB = target: T3, GST-Co-NF-kB (UniProt F1ARL5)
# T3 sequence: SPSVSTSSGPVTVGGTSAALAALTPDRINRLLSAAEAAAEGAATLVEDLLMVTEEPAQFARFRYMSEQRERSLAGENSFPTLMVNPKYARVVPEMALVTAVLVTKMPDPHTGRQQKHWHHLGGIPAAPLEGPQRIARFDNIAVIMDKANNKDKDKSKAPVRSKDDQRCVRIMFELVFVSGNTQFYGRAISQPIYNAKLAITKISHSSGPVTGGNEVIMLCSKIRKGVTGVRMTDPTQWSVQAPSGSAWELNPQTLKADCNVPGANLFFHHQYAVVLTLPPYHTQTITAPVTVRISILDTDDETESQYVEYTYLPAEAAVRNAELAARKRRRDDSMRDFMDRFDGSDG
# GST-Dm-Relish = target: T4, GST-Dm-Relish (UniProt Q94527)
# T4 sequence: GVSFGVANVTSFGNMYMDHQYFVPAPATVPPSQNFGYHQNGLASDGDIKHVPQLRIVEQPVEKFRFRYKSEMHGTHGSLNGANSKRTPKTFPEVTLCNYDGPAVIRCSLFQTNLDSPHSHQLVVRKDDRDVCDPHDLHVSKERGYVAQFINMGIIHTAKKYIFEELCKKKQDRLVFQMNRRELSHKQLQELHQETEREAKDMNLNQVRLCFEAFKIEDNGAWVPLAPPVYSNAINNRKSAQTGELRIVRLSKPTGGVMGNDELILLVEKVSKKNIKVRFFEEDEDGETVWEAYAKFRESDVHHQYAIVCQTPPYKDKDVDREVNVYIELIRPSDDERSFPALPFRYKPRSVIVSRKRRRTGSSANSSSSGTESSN
# GST-Aq-NF-kB = target: T5, GST-Aq-NF-kB (UniProt A9Y5G7)
# T5 sequence: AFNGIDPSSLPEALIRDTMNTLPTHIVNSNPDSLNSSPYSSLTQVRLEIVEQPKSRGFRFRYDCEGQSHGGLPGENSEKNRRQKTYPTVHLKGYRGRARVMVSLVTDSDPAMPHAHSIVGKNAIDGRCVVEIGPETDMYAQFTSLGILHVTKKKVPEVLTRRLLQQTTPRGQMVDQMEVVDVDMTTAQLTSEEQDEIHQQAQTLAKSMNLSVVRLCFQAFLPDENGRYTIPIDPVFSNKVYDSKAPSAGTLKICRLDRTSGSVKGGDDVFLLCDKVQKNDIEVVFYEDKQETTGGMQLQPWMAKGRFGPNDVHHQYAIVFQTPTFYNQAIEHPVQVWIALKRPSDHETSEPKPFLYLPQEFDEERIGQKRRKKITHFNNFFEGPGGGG
Sequence,binding signal (GST-Ap-NF-kB RHD) [z-score],binding signal [1] [z-score],binding signal (GST-Co-NF-kB) [z-score],binding signal (GST-Dm-Relish) [z-score],binding signal (GST-Aq-NF-kB) [z-score]
CCGATTAACATCATAATGATCTCTGATGTTAATCGGGTCTTGATTCGCTTGACGCTGCTG,0.0854,-0.587,-1.11,-1.4,-0.627
CCGATTAACATCAGGAAATTTAATGATGTTAATCGGGTCTTGATTCGCTTGACGCTGCTG,0.119,0.233,0.522,0.667,0.92
CCGATTAACATCAGCGTGAGTTGTGATGTTAATCGGGTCTTGATTCGCTTGACGCTGCTG,-0.00214,-0.303,0.194,0.128,-0.0705
CCGATTAACATCAGTGCGACGAGTGATGTTAATCGGGTCTTGATTCGCTTGACGCTGCTG,-0.0533,-0.592,-0.593,-0.512,-0.457
CCGATTAACATCATTACCGTAGTTGATGTTAATCGGGTCTTGATTCGCTTGACGCTGCTG,-0.157,-0.238,0.414,0.0634,0.268
CCGATTAACATCATGTACGCTGCTGATGTTAATCGGGTCTTGATTCGCTTGACGCTGCTG,-0.0475,-0.354,-0.318,-0.521,-0.261
CCGATTAACATCATCAACATACATGATGTTAATCGGGTCTTGATTCGCTTGACGCTGCTG,-0.579,0.162,0.211,-0.447,-0.404
CCGATTAACATCATGCTGACGTGTGATGTTAATCGGGTCTTGATTCGCTTGACGCTGCTG,-0.0388,-1.25,0.22,0.313,0.0317
CCGATTAACATCATGCCTGAGGCTGATGTTAATCGGGTCTTGATTCGCTTGACGCTGCTG,-0.486,-0.497,-1.24,-1,-0.787
CCGATTAACATCAAGTGCAGGGCTGATGTTAATCGGGTCTTGATTCGCTTGACGCTGCTG,-0.171,-0.407,0.0991,-0.0292,-0.153
CCGATTAACATCAGATTTTCCGCTGATGTTAATCGGGTCTTGATTCGCTTGACGCTGCTG,-0.232,0.476,0.194,-0.0969,0.427
CCGATTAACATCAATTATGTGCCTGATGTTAATCGGGTCTTGATTCGCTTGACGCTGCTG,0.0129,-0.308,0.306,-0.226,-0.122
CCGATTAACATCAACTTCGCACCTGATGTTAATCGGGTCTTGATTCGCTTGACGCTGCTG,0.795,-0.318,0.187,-0.461,-0.311
CCGATTAACATCATGTGGCCTAATGATGTTAATCGGGTCTTGATTCGCTTGACGCTGCTG,-0.342,-0.648,-1.06,-0.492,-0.222
CCGATTAACATCAAAAGGAAATTTGATGTTAATCGGGTCTTGATTCGCTTGACGCTGCTG,-0.202,0.847,0.0181,0.802,0.597
CCGATTAACATCACCCGAGTGCGTGATGTTAATCGGGTCTTGATTCGCTTGACGCTGCTG,0.736,-0.521,0.856,1.01,0.119
CCGATTAACATCAGCTTTCGCTGTGATGTTAATCGGGTCTTGATTCGCTTGACGCTGCTG,-0.216,-0.952,-0.805,-0.343,-0.759
CCGATTAACATCATATCCTTTTGTGATGTTAATCGGGTCTTGATTCGCTTGACGCTGCTG,-0.237,0.197,0.835,0.276,-0.172
CCGATTAACATCATCCCTCTGAATGATGTTAATCGGGTCTTGATTCGCTTGACGCTGCTG,0.834,0.45,0.23,-0.378,-0.00603
CCGATTAACATCACGCTGGACGCTGATGTTAATCGGGTCTTGATTCGCTTGACGCTGCTG,-0.565,-1.35,-0.551,-0.553,-0.581
CCGATTAACATCAACATTCATAATGATGTTAATCGGGTCTTGATTCGCTTGACGCTGCTG,0.0313,-1.01,-0.987,-0.336,-0.482
CCGATTAACATCAATCCTAACAATGATGTTAATCGGGTCTTGATTCGCTTGACGCTGCTG,-0.329,-0.247,-0.182,-0.861,-0.699
CCGATTAACATCAGCACTATAGATGATGTTAATCGGGTCTTGATTCGCTTGACGCTGCTG,-0.375,-1.61,-0.722,-0.309,-0.446
CCGATTAACATCACTGCATGAAGTGATGTTAATCGGGTCTTGATTCGCTTGACGCTGCTG,-0.964,0.291,-1.65,-0.155,-0.508
CCGATTAACATCAGAGGGCAAGATGATGTTAATCGGGTCTTGATTCGCTTGACGCTGCTG,0.0683,-0.0763,0.562,-0.892,0.199
CCGATTAACATCATTTTCCAAAATGATGTTAATCGGGTCTTGATTCGCTTGACGCTGCTG,-0.979,0.0318,-1.3,0.433,-0.116
CCGATTAACATCAAGCAGGATATTGATGTTAATCGGGTCTTGATTCGCTTGACGCTGCTG,0.303,0.0565,0.0759,-0.783,-0.308
